Reference: PubChem BioAssay AID902 (National Center for Advancing Translational Sciences (NCATS), 2007)
Values joined by “and” are separate entries in the source; they are usually repeats but may differ in a detail not shown here. Equal values may be shown once. In all, about 130,000 compounds went through this assay and about 1,900 (1.5%) were called active. The inconclusive results got no clear call from the source; some entries with a clear call stand among them for comparison. Calls come from the whole dose curve; as a rule, active = well fitted cell-killing curve with a large enough effect; inconclusive = small, poorly fitted or top-dose-only effect; inactive = no such curve, though single readings can be large or run the other way. A potency beside an inconclusive call is a rough fit, not a confirmed value. Some compounds were tested as several samples or in several runs, with calls that do not always agree.

Assay: qHTS Screen for Compounds that Selectively Target Cancer Cells with p53 Mutations: Cytotoxicity of p53ts Cells at the Nonpermissive Temperature; note: nearly all actives have a fitted effect of over 55% in size
Conditions: H1299-p53A138V viability at 39C, ATP luminescence, 24 h; activity change, negative = cell killing: at 46.1 µM (top of the series)
% is set by controls: 0 for no effect and ±100 for the full control effect; potency is the fitted concentration of half-maximal effect; tags give direction and shape of the fitted curve.

SMILES	Potency	activity change, negative = cell killing
CN1CCC[C@@H]1CCO[C@](C)(c1ccccc1)c1ccc(Cl)cc1	inactive and active: 12.6 µM	–
Cc1cccc2c1-c1sc(C(=O)NCc3ccc(Cl)cc3)cc1CO2	inconclusive: 31.6 µM [cytotoxic, single point]	–
CCCCSc1nc2c(c(=O)[nH]c(=O)n2C)n1CCc1ccccc1	inconclusive: 31.6 µM [cytotoxic, single point]	–
Cc1nc2ccc(S(=O)(=O)NC(C(=O)N3CCN(c4ccc(Cl)cc4)CC3)C(C)C)cc2s1 (stereo not given)	–	inactive: -23.6%
COc1ccc(-c2nc3cnc(N4CCNCC4)nc3n(CCc3ccccc3)c2=O)cc1	inconclusive: 31.6 µM [cytotoxic, single point]	–
Cc1cccc(N2CCN(CCCNC(=O)c3sc4ncccc4c3-n3cccc3)CC2C)c1 (stereo not given)	–	inactive: -8.15%
COc1ccc(NC(=O)C2CCN(c3nc4ccccc4nc3C(F)(F)F)CC2)cc1	inconclusive: 31.6 µM [cytotoxic, single point]	–
O=P(C1=C(N2CCOCC2)/C(=C\c2ccccc2)CC1)(N1CCOCC1)N1CCOCC1	–	inactive: 0.772%
Cc1ccc(C)c(N2CCN(C(=O)c3ccc(CS(=O)(=O)c4ccccc4C)o3)CC2)c1	inconclusive: 15.8 µM [cytotoxic, partial curve]	–
C=C(C)COc1ccc(-c2n[nH]c(C)c2Oc2ccccc2OC)c(O)c1	inconclusive: 15.8 µM [cytotoxic, single point]	–
COc1cccc(NC(=O)N(Cc2cn(C)c3ccccc23)C2CCCCC2)c1	inconclusive: 25.1 µM [cytotoxic, single point]	–
COc1ccc(NC(=O)NCc2cccn2Cc2ccc(F)cc2)cc1OC	inconclusive: 31.6 µM [cytotoxic, single point]	–
Cc1ccccc1CNC(=O)CCCn1c(=O)c2cccn2c2ccccc21	–	inactive: 31.8%
CC1CCCN(Cc2nc3c(c(=O)n(C)c(=O)n3C)n2Cc2c(F)cccc2Cl)C1 (stereo not given)	–	inactive: -9.92%
COc1ccc(Cc2nnc(N/N=C/c3ccc(O)cc3)[nH]c2=O)cc1OC	active: 2.82 µM	–
CCN1C(=O)c2cccc3c(NC(=O)c4ccccc4)ccc1c23	–	inactive: 1.5%
COCCNC(=O)CN1C(=O)COc2ccc(S(=O)(=O)N3CCOCC3)cc21	–	inactive: -9.32%
Nn1cnnc1SCC(=O)Nc1ccc(C2CCCCC2)cc1	inconclusive: 10 µM [cytotoxic, partial curve]	–
CCOCCCn1c(SCC(=O)Nc2ccc(F)cc2)nc2c(sc3ccccc32)c1=O	inconclusive: 7.94 µM [cytotoxic, partial curve]	–
CC(C)COc1ccc(-c2nnc(-c3ccco3)o2)cc1	inconclusive: 12.6 µM [cytotoxic, partial curve]	–
